# Assay results: patent US4927843A (priority 1986, dated 1990)
# System: oncoviruses (M-MuLV, R-MuLV, RSV, RD114, D17, B 95)
# Details: 3.4 uM to 34 uM
# Method: The compounds mentioned above were finely powdered and suspended in sterile manner in the solvent dimethylsulfoxide (DMSO). Stock solutions of 10 mg/ml DMSO were prepared and used for preparation of the various dilutions employed for the in-vitro examinations. Dilutions from stock solution were prepared either in phosphate saline buffer (PBS) pH-7.0 or in growth medium--minimal essential medium (Eagle's MEN).
# Our experimental results relate to the inhibition of onco-viruses by the described thiosemicarbazone compounds. Different fibroblasts cell-lines, chronically infected with various oncoviruses (see Table 1) were incubated with different concentrations of the thiosemicarbazone compounds. Virus production in drug-treated and untreated cells was followed for 12 hours. Inhibition of virus production was determined by assaying virus reverse transcriptase activity. The inhibition was proportional to drug concentration and time of treatment. Concentrations ranging from 3.4 uM to 34 uM of each of the drugs were tested and found to be effective, giving inhibitions ranging from 20% for the low concentration and an inhibition of 90% in virus production for the 34 uM concentration, after 6 to 9 hours of exposure.
smiles,measurement,value
"CN1C(=O)C(=NNC(N)=S)c2ccccc21 [M-IBT, N-methylisatine 3-thiosemicarbazone]",effectiveness against oncoviruses in infected fibroblasts,ineffective
